In PubChem BioAssay AID686978 (National Center for Advancing Translational Sciences (NCATS), 2013):
Where “and” joins values, the source holds several entries; their conditions need not be identical. Equal values may be shown once. Out of some 420,000 compounds screened, about 64,000 (15%) were called active. The shares of active, inactive and inconclusive entries below differ from those in the screen. The call rests on the fitted dose curve; in most records, active means well fitted inhibition curve with a large enough effect; inconclusive means small, poorly fitted or top-dose-only effect; inactive means flat fitted curve, though single readings scatter. Potencies of inconclusive entries are doubtful fits and often do not repeat.

Test: qHTS for Inhibitors of human tyrosyl-DNA phosphodiesterase 1 (TDP1): qHTS in cells in absence of CPT; further: nearly all actives have a fitted effect of over 55% in size
Conditions: DT40 Tdp1-/- hTDP1 cells, no CPT, ATP luminescence, 48 h; activity change, negative = growth inhibition: at 46.2 µM (top of the series) unless noted
How it was run: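 Camptothecin absent (DMSO only). Human TDP1-complemented DT40 knockout cells, 400 cells/well, 37 °C for minimum 48 hr; ATP measured via CellTiter-Glo, 30 min dark incubation, luminescence.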
On the % scale 0 is the no-effect control and ±100 the full control effect; potency means the concentration at half of the fitted maximal effect; tags describe the fitted curve by direction and shape.

Row | Structure (SMILES) | activity change, negative = growth inhibition | Potency
1 | NS(=O)(=O)c1ccc(NC(=O)CCC(=O)O)cc1 | inactive: 0.467% | 
2 | O=C(c1cnn2c1NC(=C1CC1)C=C2C(F)F)N1CCc2ccccc2C1 |  | inconclusive: 35.5 µM [inhibitor, single point]
3 | COCCn1c(SCC(=O)Nc2cc(C)on2)nc2cc(Cl)ccc2c1=O |  | inconclusive: 2.91 µM [inhibitor, partial curve, poor fit]
4 | Cn1ncc([N+](=O)[O-])c1C(=O)Nc1ccc(-c2ccccc2)cc1 | inactive: 9.95% | 
5 | COc1ccc(CN2CCNC(=O)C2CC(=O)N2CCCCO2)cc1OC (configuration not stated) | inactive: 12% | 
6 | Cc1ccc(/C=N/N2CCN(c3ccncc3S(=O)(=O)N3CCCCC3)CC2)cc1 |  | inconclusive: 10.3 µM [inhibitor, partial curve, poor fit]
7 | CCCCNC(=O)C1(C)CCCCN1Cc1ccc2ccccc2c1 (configuration not stated) |  | inconclusive: 20.6 µM [inhibitor, single point]
8 | O=C(Cc1ccccc1)NC(NCCc1ccccc1)C(Cl)(Cl)Cl (configuration not stated) | inconclusive: -31.8% [inhibitor] | 
9 | CCc1nc2ccc(C(=O)N3CCN(c4cccc(Cl)c4)CC3)cc2nc1CC |  | inconclusive: 29.1 µM [inhibitor, single point] and inconclusive: 20.6 µM [inhibitor, single point]
10 | CC(C)c1ccc(Nc2sc(C(=O)c3ccccc3)c(N)c2S(=O)(=O)c2ccccc2)cc1 |  | inconclusive: 29.1 µM [inhibitor, single point]
11 | CCOc1ccc(C(=O)NCCc2csc(-c3cccc(C)c3)n2)cc1 |  | inconclusive: 23.1 µM [inhibitor, single point]
12 | COc1cccc(-c2nc(CS(=O)CC(=O)NCc3ccc(F)cc3)c(C)o2)c1 (configuration not stated) |  | inconclusive: 29.1 µM [inhibitor, single point]
13 | Cc1ccc(-c2nc3ccc(Br)cn3c2Cc2cccc(F)c2)cc1 |  | inconclusive: 20.6 µM [inhibitor, single point]
14 | COC(=O)c1cc2c(-c3ccccc3)c(C)c3ccccn3c-2c1C(=O)OC |  | inconclusive: 16.4 µM [inhibitor, partial curve]
15 | CCC1(C)CC(=O)c2c(ccc3oc(C(=O)Nc4ccc(C(C)=O)cc4)c(C)c23)O1 (configuration not stated) |  | inconclusive: 5.8 µM [inhibitor, partial curve]
16 | CCOC(=O)c1ccc(NS(=O)(=O)c2cc3c(cc2C)NC(=O)CO3)cc1 | inactive: 3.02% | 
17 | OCCC1CN(CCCc2ccccc2)CCN1CCc1ccccc1 (configuration not stated) |  | inconclusive: 4.61 µM [inhibitor, single point]
18 | COC(=O)c1c(-c2ccc(C)cc2)csc1NC(=S)NC(=O)c1ccc(F)cc1 |  | inconclusive: 23.1 µM [inhibitor, partial curve]
19 | O=C(c1cc(Cl)ccc1Cl)N1CCc2ccccc21 |  | inconclusive: 25.9 µM [inhibitor, single point]
20 | CCCNC(=O)C1(CC2CC(c3ccccc3)=NO2)CCN(C(=O)c2cc(OCC)c(OCC)c(OCC)c2)CC1 (configuration not stated) |  | inconclusive: 18.4 µM [inhibitor, single point]
21 | CCOc1ccc(CCNC(=O)CCCn2c(=O)c3cccn3c3cccnc32)cc1 |  | inconclusive: 16.4 µM [inhibitor, single point]

Row | Structure (SMILES) | activity change, negative = growth inhibition | Potency
22 | COc1cc(NC(=O)c2ccno2)cc(C(=O)Nc2cccc(C(F)(F)F)c2)c1 |  | active: 16.4 µM
23 | O=C(CN1C(=O)NC2(CCCCC2)C1=O)N1CCN(S(=O)(=O)c2ccc(F)c(F)c2F)CC1 |  | inconclusive: 16.4 µM [inhibitor, single point]
24 | CCN(c1ccccc1)S(=O)(=O)c1ccc(NC(=O)c2nc(S(C)(=O)=O)ncc2Cl)cc1 |  | active: 651 nM and active: 1.03 µM
25 | CCOC(=O)c1cnc2ccc(OCC)cc2c1NCc1ccccc1OC |  | active: 5.17 µM
26 | Nc1sc(-c2ccccc2)cc1C(=O)N1CCN(c2ccccc2)CC1 |  | inconclusive: 29.1 µM [inhibitor, single point]
27 | O=C(Nc1nc2ccccc2[nH]1)c1ccc(F)cc1 |  | inconclusive: 9.2 µM [inhibitor, partial curve]
28 | CC(NC(=O)c1cc2ccccc2o1)c1cccs1 (configuration not stated) |  | inconclusive: 6.51 µM [inhibitor, full curve, poor fit]
29 | COc1ccc(C(=O)CCC(=O)Nc2ccc(Cl)cc2)cc1 | inactive: 20.7% | 
30 | NS(=O)(=O)c1ccc(CCNC(=O)/C=C/c2ccc([N+](=O)[O-])cc2)cc1 |  | active: 14.6 µM
31 | S=C(NCc1ccccn1)Nc1ccc(Cl)cc1 |  | inconclusive: 25.9 µM [inhibitor, single point]
32 | CCOCCOC(=O)c1ccc2c(c1)N(Cc1ccccc1C#N)C(=O)c1ccccc1S2(=O)=O |  | inconclusive: 18.4 µM [inhibitor, partial curve]
33 | COc1cccc(CNC(=O)[C@@H]2CCCN2C(=O)[C@H]2CCCCN2C(=O)c2cccc(Cl)c2)c1 |  | inconclusive: 25.9 µM [inhibitor, single point]
34 | C=CC[C@H](CC(=O)NCCO)C(=O)N[C@H](COC(=O)[C@@H](CC=C)CC(=O)OC(C)(C)C)Cc1ccccc1 | inconclusive: -30.1% [inhibitor] | 
35 | CC1CC(C)(C)CC2(C1)NC(=O)N(CC(=O)N(C)Cc1nc3ccccc3c(=O)[nH]1)C2=O (configuration not stated) | inactive: -24.6% | 
36 | CCc1ccc(C(=O)COC(=O)C(NC(=O)C2CCC(C)CC2)C(C)C)cc1 (configuration not stated) |  | inconclusive: 29.1 µM [inhibitor, single point]
37 | O=C(NCCCn1ccnc1)Nc1cccc(Cl)c1 | inactive: -4.09% | 
38 | Cc1ccccc1-c1nc(-c2ccccn2)no1 |  | inconclusive: 16.4 µM [inhibitor, partial curve]
39 | O=C(Nc1ccc2ccccc2c1)N1CCCN(CCOc2ccccc2)CC1 |  | active: 4.11 µM
40 | COc1cc(-c2n[nH]c(=S)n2-c2ccc(Br)cc2)cc(OC)c1OC | inactive: 8% | 
41 | CCC(CO)Oc1cc(NC(=O)c2ccc(OC)cc2)c2ncn(C(C)C)c2c1 (configuration not stated) |  | inconclusive: 29.1 µM [inhibitor, single point]
42 | COc1ccc(-c2cc3ccc(O)c(CN4CCN(C)CC4)c3oc2=O)cc1OC |  | inconclusive: 29.1 µM [inhibitor, single point]
